The results in this text go back to PubChem BioAssay AID1645887 (National Center for Advancing Translational Sciences (NCATS), 2021).

Values joined by “and” are separate entries in the source; they are usually repeats but may differ in a detail not shown here. Equal entries are not always repeated. Among all 16,000 compounds or so, about 40 (0.2%) were called active. Inconclusive results (about 1%) are left out. Calls come from the whole dose curve; as a rule, active = well fitted activation curve with a large enough effect; inconclusive = small, poorly fitted or top-dose-only effect, or another doubt; inactive = no such curve, though single readings can be large or run the other way. This is one part of the list. Non-standard residues stand in square brackets, D forms with d. Residues, ends and D or L forms follow the SMILES beside them.
% is set by controls: 0 for no effect and ±100 for the full control effect.

Sequence of UniProt Q8WZA2 (Q8WZA2 whole entry, looked up): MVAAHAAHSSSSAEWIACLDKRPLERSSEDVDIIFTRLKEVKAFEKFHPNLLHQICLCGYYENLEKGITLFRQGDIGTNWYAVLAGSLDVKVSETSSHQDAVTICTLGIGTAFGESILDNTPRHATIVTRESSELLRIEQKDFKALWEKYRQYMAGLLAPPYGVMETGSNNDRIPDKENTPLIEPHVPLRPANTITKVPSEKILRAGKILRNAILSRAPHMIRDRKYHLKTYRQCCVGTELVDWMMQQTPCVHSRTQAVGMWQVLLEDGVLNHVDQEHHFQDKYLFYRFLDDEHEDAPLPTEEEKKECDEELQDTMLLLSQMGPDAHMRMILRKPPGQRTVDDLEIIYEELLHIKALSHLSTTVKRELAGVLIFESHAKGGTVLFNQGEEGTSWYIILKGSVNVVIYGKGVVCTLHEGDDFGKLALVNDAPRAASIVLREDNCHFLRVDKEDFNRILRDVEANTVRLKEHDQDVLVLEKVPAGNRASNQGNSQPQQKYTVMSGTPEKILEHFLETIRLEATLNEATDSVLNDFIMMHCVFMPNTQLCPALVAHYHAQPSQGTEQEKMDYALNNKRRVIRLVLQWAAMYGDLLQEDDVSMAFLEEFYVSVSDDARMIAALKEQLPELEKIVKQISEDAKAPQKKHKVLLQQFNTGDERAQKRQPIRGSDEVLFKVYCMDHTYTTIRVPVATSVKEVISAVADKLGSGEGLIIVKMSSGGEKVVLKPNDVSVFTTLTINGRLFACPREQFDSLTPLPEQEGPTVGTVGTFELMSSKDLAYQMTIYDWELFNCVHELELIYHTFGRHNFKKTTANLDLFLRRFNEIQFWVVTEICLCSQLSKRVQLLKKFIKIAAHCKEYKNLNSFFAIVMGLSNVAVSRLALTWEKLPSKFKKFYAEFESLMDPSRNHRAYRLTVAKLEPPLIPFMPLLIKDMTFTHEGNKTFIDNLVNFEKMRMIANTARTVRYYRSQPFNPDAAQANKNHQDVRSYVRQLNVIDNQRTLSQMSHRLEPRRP

The assay concerns the target Rap guanine nucleotide exchange factor 4 (Homo sapiens) (UniProt Q8WZA2). Put plainly: Validation qHTS for agonist of cAMP-regulated guanine nucleotide exchange factor 4 (EPAC2).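 Note: exchange makes BODIPY-GDP fluorescence drop when released from Rap1B; series mostly up to about 150 µM.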 Particulars: EPAC2 Rap1B BODIPY-GDP exchange, fluorescence; activation: hits give high values. The procedure, abridged:
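Fluorescent exchange assay: 100 nM EPAC2 with 250 nM RAP1B-BODIPY-GDP and 50 uM GDP; compound added, 5 min at room temperature, then read (ex 480/em 540 nm) every 5 min for 30 min. Normalized to 6.5 mM cAMP agonist control.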
In general terms: qHTS replaces the single test concentration by a dilution series.
For the compound `CCN1CCN(C(=O)NC(C(=O)NC2C(=O)N3C2SC(C)(C)C3C(=O)O)c2ccccc2)C(=O)C1=O` (configuration not stated), the activation was inactive: 10%.

Take `COCCn1c(=O)c(-c2cccc(C#N)c2)nc2cnc(N3CCN(C)CC3)nc21`: the activation is inactive: -16.1%.

As for `CC(C)CC1C(=O)N2CCCC2C2(O)O[C@@](NC(=O)C3C=C4c5cccc6[nH]c(Br)c(c56)CC4N(C)C3)(C(C)C)C(=O)N12` (some centres not stated), the activation was inactive: 3.16%.

For the compound `CN(C)c1ccc(-c2nc(N3CCNCC3)c3ccccc3n2)cc1`, the activation was inactive: 1.68%.

On to `C[C@@H](O)[C@H]1C(=O)N2C(C(=O)O)=C(S[C@@H]3CN[C@H](C(=O)N(C)C)C3)[C@H](C)[C@H]12`, for which the activation is inactive: 4.52%.

For `CC(=O)NCC(=O)N[C@H](CCC(=O)O)C(=O)O` (Ac-Gly-[dE]-OH), the activation is inactive: -10.8%.

With `O=C(Nc1cccc(C(F)(F)F)c1)c1cc(Br)cc(Br)c1O`, the activation was inactive: -3.54%.

For `CC1CCCCN1CCCOC(=O)c1ccccc1` (configuration not stated), the activation is inactive: -0.267%.

On to `CCCCCCCC/C=C\CCCCCCCC(=O)NCCO`, for which the activation was inactive: -37.2% and inactive: 0.752% and inactive: -40.5%.

For `CC(=O)NCCNc1nc(-c2ccc(N(C)C)cc2)nc2ccccc12`, the activation is inactive: -5.84%.

For the compound `CN(C)c1ncc2nc(CCc3ccccc3)c(=O)n(C[C@H]3CCCO3)c2n1`, the activation was inactive: -6.53%.

For `Cc1ccccc1-c1nc(-n2ccnc2)c2ccccc2n1`, the activation is inactive: -3.02%.

Regarding `CC(C(O)c1ccccc1)N(C)CCOC(c1ccccc1)c1ccccc1` (configuration not stated), the activation was inactive: -16.4%.

In the case of `COc1ccc(NC(=O)N2CC3(CCN(C(=O)c4c(C)noc4C)CC3)C2)cc1`, the activation was inactive: -11.9%.

Regarding `COc1ccccc1-c1ccc2ncnc(NC3CC3)c2c1`, the activation is inactive: -7.06%.

As for `Cc1cc(C)cc(OCC2CNC(=O)O2)c1` (configuration not stated), the activation was inactive: -17.4%.

Consider `CC(=O)O[C@H]1C[C@@H]2CC[C@@H]3[C@H](CC[C@@]4(C)[C@H]3C[C@H]([N+]3(C)CCCCC3)[C@@H]4OC(C)=O)[C@@]2(C)C[C@@H]1N1CCCCC1`, for which the activation was inactive: -10.1%.

For `Cc1ccc(O)c(-n2nc3ccccc3n2)c1`, the activation was inactive: 8.07%.

As to `Cc1c(C(=O)NCC2(N3CCOCC3)CCCCC2)cnn1-c1nccc(-c2ccccc2F)n1`, the activation was inactive: -9.26%.

In the case of `CC1(C)C(=O)C=C[C@]2(C)C1CC(=O)[C@]1(C)C2CC[C@@]2(C)C(c3ccoc3)OC(=O)C3O[C@@]321` (some centres not stated), the activation was inactive: -3.74%.

As for `O=C(O)[C@H](O)[C@@H](O)[C@H](O[C@@H]1O[C@H](CO)[C@H](O)[C@H](O)[C@H]1O)[C@H](O)CO`, the activation is inactive: -11.5%.

As for `COc1ccc(SCCN2CC[C@@H](O)CCC2=O)cc1`, the activation was inactive: -10.1%.

As for `COc1ccc(C(=O)N2CCC3(CCCN(CC(C)C)C3)CC2)cc1`, the activation was inactive: -4.57%.

For `COc1cc2nc(CCc3nc4cc(OC)c(OC)cc4[nH]3)[nH]c2cc1OC`, the activation was inactive: -8.1%.

As for `COc1ccc(C(=O)O)c(O)c1OC`, the activation was inactive: -2.3%.

As to `COc1cc(/C=C/C(=O)N2CCCCC2=O)cc(OC)c1OC`, the activation is inactive: 9.48%.

Regarding `O=c1c(-c2ccc(F)c(F)c2)nc2cncnc2n1-c1ccccc1`, the activation is inactive: -16.6%.

Take `CC1(C)O[C@@H]2C[C@H]3[C@@H]4CCC5=CC(=O)CC[C@]5(C)[C@@]4(F)[C@@H](O)C[C@]3(C)[C@]2(C(=O)CCl)O1`: the activation is inactive: -15.1%.

`Cc1nc2cnc(N3CCNCC3)nc2n(Cc2ccc(F)cc2)c1=O`: the activation is inactive: -16.6%.

Turning to `O=C(Nc1ccc2c(c1)OCO2)O[C@@H]1C[C@H]2CCC(=O)N3CC[C@@H](C1)[C@@H]23`, the activation is inactive: -10.3%.

For `COc1cc(OC)cc(C(=O)NCC2Cc3cccc(-c4nc(C)cnc4C)c3O2)c1` (configuration not stated), the activation was inactive: -19.9%.

For the compound `COc1cc(=O)n2c(c1C(=O)NC(C)c1ccco1)CCN(Cc1ccccc1Cl)CC2` (configuration not stated), the activation was inactive: -1.87%.

In the case of `CCCC[C@H]1COCCS(=O)(=O)N1Cc1ccc(F)cc1`, the activation was inactive: -39.8%.

As for `CS(=O)(=O)N1CCC2(CC1)CN(Cc1nccs1)C2`, the activation is inactive: -0.541%.

Consider `CCCCCCCCCCCCCCCC(=O)OC[C@H](COP(=O)([O-])OCC[N+](C)(C)C)OC(=O)CCCCCCCCCCCCCCC`, for which the activation is inactive: 5.83%.

Take `O=c1c(CCc2ccccc2)nc2cnc(Oc3cccc(Cl)c3)nc2n1C[C@H]1CCCO1`: the activation is inactive: -4.94%.

Take `Cc1cc(C)cc(CN2CCOc3ccc(CN4CCC(O)(c5cccnc5)CC4)cc3C2)c1`: the activation was inactive: -19.4%.

As for `COc1ccc2[nH]cc(CCNc3ccnc(-c4ccc(C(=O)N(C)C)cc4)n3)c2c1`, the activation is inactive: 9.65%.

Turning to `O=C(Nc1cccc(F)c1)N1CCC2(CC1)CCN(C(=O)c1csnn1)CC2`, the activation was inactive: -3.86%.

Regarding `C[C@]12C=CC(=O)C=C1CC[C@H]1[C@@H]3C[C@@H](O)[C@](O)(C(=O)CO)[C@@]3(C)C[C@H](O)[C@@]12F`, the activation is inactive: 4.35% and inactive: -26.1%.

On to `COc1cccc(Nc2ncc3ncc(=O)n(CCc4ccccc4)c3n2)c1`, for which the activation is inactive: -14.5%.

For `FC(F)(F)c1ccccc1-c1nccc(NCCN2CCOCC2)n1`, the activation was inactive: 3.47%.

Regarding `CCN(CC)C(=O)/C(C#N)=C/c1cc(O)c(O)c([N+](=O)[O-])c1`, the activation was inactive: -6.7%.

Take `COc1ccc2[nH]cc(CCNc3nc(-c4ccc(C(=O)N(C)C)cc4)nc4ccccc34)c2c1`: the activation was inactive: 6.4%.

`O=C(NCCc1ccccn1)C1CC12CCN(C(=O)c1ccc(F)cc1Cl)CC2` (configuration not stated): the activation is inactive: -4.52%.

`C[C@@H]1O[C@@H](OC[C@H]2O[C@@H](Oc3c(-c4ccc(OCCO)c(OCCO)c4)oc4cc(OCCO)cc(O)c4c3=O)[C@H](O)[C@@H](O)[C@@H]2O)[C@H](O)[C@H](O)[C@H]1O`: the activation was inactive: -9.86%.

For `COc1cccc(Cn2c(=O)c(-c3cc(F)cc(F)c3)nc3cnc(N4CCN(C)CC4)nc32)c1`, the activation is inactive: -6.18%.

On to `COC(=O)C1CCN(Cc2ccc3c(c2)CN(C(=O)c2cc4cc(F)ccc4[nH]2)CCO3)CC1`, for which the activation is inactive: -2.38%.

As to `NC(N)=NCCC[C@H](NC(=O)[C@@H](N)Cc1ccc(O)cc1)C(=O)O`, the activation was inactive: 1.7%.

Take `OC/C=C/c1ccc(O)c(O)c1`: the activation was inactive: -15.8%.

In the case of `O=C(C[n+]1c(Cl)cc(Cl)c2ccccc21)c1ccccc1`, the activation is inactive: -12.4%.

Turning to `O=c1cc(-c2cccc(O)c2)oc2ccc(O)cc12`, the activation is inactive: -19.8%.

With `CC(=O)OC1CC2C(C)(C)C(=O)[C@@H]3OC3[C@@]2(C)C2CC[C@]3(C)C(=CC(=O)OC3c3ccoc3)[C@]12C` (some centres not stated), the activation is inactive: -2.03%.

Take `CCCOC(=O)c1ccccc1O`: the activation is inactive: -8.72%.

As to `COC(=O)CCC(C)C1CCC2C3C(C[C@H](O)C12C)C1(C)CC[C@@H](O)CC1C[C@H]3O` (some centres not stated), the activation was inactive: -10.7%.

As to `CCCCC/C=C\C/C=C\C/C=C\C/C=C\CCCC(=O)O[C@@H](CO)COC(=O)CCCCCCCCCCCCCCCCC`, the activation is inactive: 0.512%.

For `CC(C)NC(=O)c1cn(C2CCCN(C(=O)c3cc4ccccc4oc3=O)C2)nn1` (configuration not stated), the activation was inactive: -4.04%.

In the case of `Cn1cccc1C(=O)N1CCC2(CC1)CCN(c1ccncc1)CC2`, the activation is inactive: -8.14%.

Regarding `CN(C/C=C/c1ccccc1)Cc1cccc2ccccc12`, the activation was inactive: -5.5%.

For the compound `CCCS(=O)(=O)NCc1c(C)ncc2c1CCN(C(=O)c1c(F)ccc(F)c1F)C2`, the activation was inactive: -2.36%.

As for `CCCC(=O)NCCc1c(I)[nH]c2ccc(OC)cc12`, the activation was inactive: -16.8%.

Regarding `COc1ccc2c(c1)-c1nc(-n3ncc(C(=O)NCC4CCCN(C)C4)c3C3CC3)ncc1CC2` (configuration not stated), the activation was inactive: 1.91%.

With `CN1C(=O)OC(C)(C)C1=O`, the activation is inactive: -2.15%.

`CC(=O)CCCCn1c(=O)c2c(ncn2C)n(C)c1=O`: the activation is inactive: -2% and inactive: -3.07% and inactive: -13.2%.

`Cc1[nH]c2ccccc2c1/C=C/c1ccnc2ccccc12`: the activation is inactive: -5.14%.

For `COC(=O)C[C@H]1c2cc(C(F)(F)F)ccc2S(=O)(=O)N1Cc1ccc(OC)cc1`, the activation is inactive: -21.2%.

As to `C[C@@H]1CC[C@@]2(OC1)O[C@H]1C[C@H]3[C@@H]4CC[C@H]5C[C@@H](O)CC[C@]5(C)[C@H]4CC(=O)[C@]3(C)[C@H]1[C@@H]2C`, the activation was inactive: -1.26%.

`CCC(CCC(C)C1CCC2C3CCC4CC(O)CC[C@@]4(C)C3CC[C@@]12C)C(C)C` (some centres not stated): the activation was inactive: -14.6%.

Take `Nc1c(CC(=O)O)cccc1C(=O)c1ccc(Br)cc1`: the activation is inactive: -16.9%.

As to `CCOC(=O)O[C@]1(C(=O)OCCl)CC[C@@H]2[C@H]3CCC4=CC(=O)C=C[C@]4(C)[C@@H]3[C@@H](O)C[C@@]21C`, the activation was inactive: -19.4%.

For the compound `Cc1cc(C(=O)Nc2ccccc2-c2nc(CNC(=O)C3COc4ccccc4O3)c(C)o2)c(C)o1` (configuration not stated), the activation was inactive: -13.9%.

With `NC[C@@H]1O[C@H](O[C@H]2[C@H](O)[C@H](O[C@H]3[C@@H](O)[C@H](N)C[C@H](N)[C@H]3O[C@H]3O[C@H](CN)[C@H](O)[C@H](O)[C@H]3N)O[C@@H]2CO)[C@@H](N)[C@@H](O)[C@@H]1O`, the activation is inactive: -1.69%.

Regarding `OCCN1CCN(CCCN2c3ccccc3C=Cc3ccccc32)CC1`, the activation is inactive: -13.8% and inactive: 16.1% and inactive: -41.9%.

For the compound `COCc1c(C(=O)N2CC3CCC2C3)cnn1-c1nccc(-c2ccccc2OC)n1` (configuration not stated), the activation was inactive: -11.5%.

Regarding `O=[N+]([O-])c1nccn1CO[C@@H](CO)[C@H](O)CO`, the activation was inactive: -20.6%.

Regarding `Cc1ccc(CNc2ncnc3sc(C(=O)N4CCCCC4c4cccnc4)c(C)c23)o1` (configuration not stated), the activation is inactive: -29.5%.

As for `FC(F)(F)c1ccccc1-c1cncnc1NCc1cccs1`, the activation is inactive: -26.3%.
